Measured values from patent US20110229450A1, “ENZYMES AND METHODS FOR DEGRADING S-TRIAZINES AND DIAZINES” (Commonwealth Scientific and industrial Research Organisation, priority 2008, published 2011).

Description: FIG. 9. Relationship between the rate constant (kcat) of TrzN with ametryn and the pH of the reaction buffer.
The active site cavity of TrzN (FIG. 5) is located at the centre of the catalytic domain of each subunit. Three conserved histidines of the amidohydrolase motif, located on strands one (H63, H65) and five (H238), in addition to a glutamine residue from strand two and the putative water/hydroxide nucleophile constitute the metal ligands. The active site Zn^2+ metal ion is coordinated in trigonal bipyramidal geometry, with H63, H65, and H238 comprising the equatorial ligands, and Q142 and the water molecule the axial ligands. […] The nucleophilic water is shown to be additionally hydrogen bonded to H274, which is a conserved residue of the amidohydrolase motif and is in turn hydrogen bonded to D300 to form a H-D catalytic dyad.

B1: TrzN Wildtype: Wild-type TrzN triazine hydrolase, SEQ ID NO:1; codon optimised open reading frame TrzNco, SEQ ID NO:2 (protein, listed as Arthrobacter aurescens)
chain: MILIRGLTRVITFDDQERELEDADILIDGPKIVAVGKDLSDRSVSRTIDGRGMIALPGLINSHQHLYEGAMRAIPQLERVTMASWLEGVLTRSAGWWRDGKFGPDVIREVARAVLLESLLGGITTVADQHLFFPGATADSYIDATIEAATDLGIRFHAARSSMTLGKSEGGFCDDLFVEPVDRVVQHCLGLIDQYHEPEPFGMVRIALGPCGVPYDKPELFEAFAQMAADYDVRLHTHFYEPLDAGMSDHLYGMTPWRFLEKHGWASDRVWLAHAVVPPREEIPEFADAGVAIAHLIAPDLRLGWGLAPIREYLDAGITVGFGTTGSASNDGGNLLGDLRLAALAHRPADPNEPEKWLSARELLRMATRGSAECLGRPDLGVLEEGRAADIACWRLDGVDRVGVHDPAIGLIMTGLSDRASLVVVNGQVLVENERPVLADLERIVANTTALIPKNL
pKa of the nucleophile: approximately 8
